These results are taken from PMC10946956.

Protein sequences, listed by entry. Tags and fused reporters are not part of them. Residues count along the entry.
UniProt O60603: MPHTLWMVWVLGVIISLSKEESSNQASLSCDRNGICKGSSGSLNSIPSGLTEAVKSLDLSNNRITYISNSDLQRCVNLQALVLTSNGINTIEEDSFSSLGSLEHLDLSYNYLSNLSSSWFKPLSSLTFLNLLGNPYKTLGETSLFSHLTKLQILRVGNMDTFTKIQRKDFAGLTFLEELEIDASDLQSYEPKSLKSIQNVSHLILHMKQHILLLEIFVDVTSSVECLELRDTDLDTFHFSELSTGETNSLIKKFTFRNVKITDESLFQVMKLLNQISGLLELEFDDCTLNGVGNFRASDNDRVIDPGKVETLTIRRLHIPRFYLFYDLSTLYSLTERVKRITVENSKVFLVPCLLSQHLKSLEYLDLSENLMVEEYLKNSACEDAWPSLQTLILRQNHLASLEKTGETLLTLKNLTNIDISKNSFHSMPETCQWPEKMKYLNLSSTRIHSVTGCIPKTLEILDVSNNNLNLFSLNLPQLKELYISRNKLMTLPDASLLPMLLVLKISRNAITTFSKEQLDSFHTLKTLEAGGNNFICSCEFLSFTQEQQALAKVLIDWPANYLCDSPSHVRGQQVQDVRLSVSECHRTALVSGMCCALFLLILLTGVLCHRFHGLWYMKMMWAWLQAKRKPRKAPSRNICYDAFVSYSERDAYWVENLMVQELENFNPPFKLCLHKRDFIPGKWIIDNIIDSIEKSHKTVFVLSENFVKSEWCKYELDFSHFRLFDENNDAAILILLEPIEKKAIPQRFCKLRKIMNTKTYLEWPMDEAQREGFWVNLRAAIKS
UniProt O15455, residues 24-904: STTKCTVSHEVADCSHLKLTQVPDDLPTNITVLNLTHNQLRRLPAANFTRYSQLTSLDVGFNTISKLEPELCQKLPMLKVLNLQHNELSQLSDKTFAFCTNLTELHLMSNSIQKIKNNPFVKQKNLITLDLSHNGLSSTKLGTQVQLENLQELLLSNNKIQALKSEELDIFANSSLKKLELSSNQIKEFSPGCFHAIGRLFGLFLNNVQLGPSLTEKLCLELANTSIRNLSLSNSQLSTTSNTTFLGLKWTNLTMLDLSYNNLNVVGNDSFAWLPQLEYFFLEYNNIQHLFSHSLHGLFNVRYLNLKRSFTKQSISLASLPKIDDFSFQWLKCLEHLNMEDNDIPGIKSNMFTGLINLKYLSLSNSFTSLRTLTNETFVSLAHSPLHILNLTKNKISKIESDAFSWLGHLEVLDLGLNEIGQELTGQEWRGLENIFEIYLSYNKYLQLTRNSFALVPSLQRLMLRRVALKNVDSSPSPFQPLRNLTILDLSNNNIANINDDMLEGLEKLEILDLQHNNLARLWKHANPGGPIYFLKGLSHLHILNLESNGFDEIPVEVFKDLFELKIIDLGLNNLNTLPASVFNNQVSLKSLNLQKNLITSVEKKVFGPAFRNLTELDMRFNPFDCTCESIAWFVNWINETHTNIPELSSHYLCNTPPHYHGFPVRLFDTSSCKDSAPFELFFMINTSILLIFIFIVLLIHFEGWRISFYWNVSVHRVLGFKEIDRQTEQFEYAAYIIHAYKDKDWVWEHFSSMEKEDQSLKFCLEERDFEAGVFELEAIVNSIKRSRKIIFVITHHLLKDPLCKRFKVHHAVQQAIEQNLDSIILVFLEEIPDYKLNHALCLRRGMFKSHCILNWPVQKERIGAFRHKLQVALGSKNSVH
UniProt O00206, residues 24-839: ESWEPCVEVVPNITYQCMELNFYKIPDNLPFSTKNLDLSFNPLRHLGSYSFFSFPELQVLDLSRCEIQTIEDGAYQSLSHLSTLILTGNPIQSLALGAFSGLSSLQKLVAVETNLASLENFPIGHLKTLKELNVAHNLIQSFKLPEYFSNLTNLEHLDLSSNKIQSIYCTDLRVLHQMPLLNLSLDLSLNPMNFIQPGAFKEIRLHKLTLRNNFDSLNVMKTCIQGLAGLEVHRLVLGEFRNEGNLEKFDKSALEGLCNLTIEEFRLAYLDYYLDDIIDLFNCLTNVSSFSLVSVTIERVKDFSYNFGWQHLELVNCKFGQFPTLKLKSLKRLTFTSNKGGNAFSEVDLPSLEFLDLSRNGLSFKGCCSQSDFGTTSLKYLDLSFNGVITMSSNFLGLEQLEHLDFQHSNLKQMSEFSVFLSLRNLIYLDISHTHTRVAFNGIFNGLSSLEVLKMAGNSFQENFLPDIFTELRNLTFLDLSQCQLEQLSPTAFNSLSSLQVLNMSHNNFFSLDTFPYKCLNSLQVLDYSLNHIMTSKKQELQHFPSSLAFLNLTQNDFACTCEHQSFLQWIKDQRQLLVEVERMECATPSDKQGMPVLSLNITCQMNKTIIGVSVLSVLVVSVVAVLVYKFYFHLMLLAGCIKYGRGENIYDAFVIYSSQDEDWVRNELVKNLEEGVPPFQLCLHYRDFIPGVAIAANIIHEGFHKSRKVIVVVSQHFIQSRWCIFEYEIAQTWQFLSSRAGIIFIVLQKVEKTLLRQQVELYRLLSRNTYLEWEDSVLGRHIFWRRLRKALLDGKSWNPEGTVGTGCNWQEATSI
UniProt O60602, residues 21-858: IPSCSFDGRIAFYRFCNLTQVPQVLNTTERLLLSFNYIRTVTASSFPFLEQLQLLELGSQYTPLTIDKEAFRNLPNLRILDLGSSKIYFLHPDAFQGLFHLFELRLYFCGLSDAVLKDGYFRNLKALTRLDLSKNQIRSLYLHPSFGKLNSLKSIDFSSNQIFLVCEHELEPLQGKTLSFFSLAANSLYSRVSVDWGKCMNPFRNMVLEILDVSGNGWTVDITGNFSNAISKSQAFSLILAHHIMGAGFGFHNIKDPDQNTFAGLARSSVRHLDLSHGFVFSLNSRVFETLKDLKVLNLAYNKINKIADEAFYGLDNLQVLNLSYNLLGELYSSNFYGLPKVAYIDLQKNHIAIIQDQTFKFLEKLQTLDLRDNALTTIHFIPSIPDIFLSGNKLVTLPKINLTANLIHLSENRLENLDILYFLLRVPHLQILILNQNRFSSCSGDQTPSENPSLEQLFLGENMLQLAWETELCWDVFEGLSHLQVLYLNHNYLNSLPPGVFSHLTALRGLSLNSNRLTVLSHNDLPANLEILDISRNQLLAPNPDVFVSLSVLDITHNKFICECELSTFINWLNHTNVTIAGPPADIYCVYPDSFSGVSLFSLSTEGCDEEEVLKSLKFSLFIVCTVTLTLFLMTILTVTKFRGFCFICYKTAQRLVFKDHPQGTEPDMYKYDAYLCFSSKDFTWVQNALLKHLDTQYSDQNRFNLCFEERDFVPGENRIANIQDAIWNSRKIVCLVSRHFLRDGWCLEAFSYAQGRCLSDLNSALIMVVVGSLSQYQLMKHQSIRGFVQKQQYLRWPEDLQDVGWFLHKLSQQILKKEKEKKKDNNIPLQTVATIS
UniProt Q15363, residues 21-201: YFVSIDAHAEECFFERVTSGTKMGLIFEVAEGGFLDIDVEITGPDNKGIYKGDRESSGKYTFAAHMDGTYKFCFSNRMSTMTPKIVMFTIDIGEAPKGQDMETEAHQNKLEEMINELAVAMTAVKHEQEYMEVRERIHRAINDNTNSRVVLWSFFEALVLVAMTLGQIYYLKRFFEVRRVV

Assay [1] deals with Flag-TLR2 (UniProt O60603). Put plainly: co-IP; HEK293T cells transiently co-transfected, lysed 48 h later; supernatant incubated with M2 anti-FLAG beads overnight at 4°C, washed three times with TBS; western blot.
In assay [2] the target is Flag-TLR3 (UniProt O15455). Described as above.
The target of assay [3] is Flag-TLR4 (UniProt O00206). The assay is described as above.
The target of assay [4] is Flag-TLR2 (UniProt O60603). Put plainly: proximity ligation; HEK293T cells transiently co-transfected, fixed 48 h later (4% paraformaldehyde, acetone), Duolink In Situ Red Mouse/Rabbit kit with mouse anti-HA and rabbit anti-FLAG, confocal microscopy.
For assay [5], the target named is Flag-TLR3 (UniProt O15455). Described as above.
For assay [6], the target named is Flag-TLR4 (UniProt O00206). The assay is described as above.
Assay [7] addresses Flag-TLR2 (UniProt O60603). The assay is described as above. The source holds these as a separate data set.
In assay [8] the target is Flag-TLR3 (UniProt O15455). The assay is described as above. The source holds these as a separate data set.
The target of assay [9] is Flag-TLR4 (UniProt O00206). Described as above. This is another data set of the same source.
The target in a further assay is Flag-TLR5 (UniProt O60602). The description is as above.

These are yes or no findings as the source states them, for the method shown. Binding seen in cells or lysates may run through a third protein. Some entries that bind do so weakly or less than the wild type. For some of these results: Tags and fused reporters may be left off the sequences shown.

Turning to TMED2-HA (from UniProt Q15363 21-201), the binding result in the assay with Flag-TLR2 [1], in the assay with Flag-TLR3 [2], with Flag-TLR4 [3], with Flag-TLR2 [4], in the assay with Flag-TLR3 [5] and with Flag-TLR4 [6] was “binds” in each case.

B1: TMED7-HA (protein, UniProt Q9Y3B3 35-224)
chain: SEITFELPDNAKQCFYEDIAQGTKCTLEFQVITGGHYDVDCRLEDPDGKVLYKEMKKQYDSFTFTASKNGTYKFCFSNEFSTFTHKTVYFDFQVGEDPPLFPSENRVSALTQMESACVSIHEALKSVIDYQTHFRLREAQGRSRAEDLNTRVAYWSVGEALILLVVSIGQVFLLKSFFSDKRTTTTRVGS
As for B1, the binding entry with Flag-TLR2 [1] is “binds”; with Flag-TLR3 [2], “no binding”; with Flag-TLR4 [3] it was “binds”; with Flag-TLR2 [7], “binds”; in the assay with Flag-TLR3 [8], “no binding”; with Flag-TLR4 [9] it was “binds”. In the assay with Flag-TLR5, the binding result is on record as “binds”.
